These results are taken from PubChem BioAssay AID485344 (National Center for Advancing Translational Sciences (NCATS), 2010).

Among all 340,000 compounds or so, about 6,900 (2%) were called active. Rule as the data show it: active = inhibition above about 30%; inactive = below that, where a call was filed. This is a selection; strong and weak results do not stand in their true shares. Where no call is shown, the source filed none.

Sequence of UniProt P14416 (P14416 whole entry, looked up): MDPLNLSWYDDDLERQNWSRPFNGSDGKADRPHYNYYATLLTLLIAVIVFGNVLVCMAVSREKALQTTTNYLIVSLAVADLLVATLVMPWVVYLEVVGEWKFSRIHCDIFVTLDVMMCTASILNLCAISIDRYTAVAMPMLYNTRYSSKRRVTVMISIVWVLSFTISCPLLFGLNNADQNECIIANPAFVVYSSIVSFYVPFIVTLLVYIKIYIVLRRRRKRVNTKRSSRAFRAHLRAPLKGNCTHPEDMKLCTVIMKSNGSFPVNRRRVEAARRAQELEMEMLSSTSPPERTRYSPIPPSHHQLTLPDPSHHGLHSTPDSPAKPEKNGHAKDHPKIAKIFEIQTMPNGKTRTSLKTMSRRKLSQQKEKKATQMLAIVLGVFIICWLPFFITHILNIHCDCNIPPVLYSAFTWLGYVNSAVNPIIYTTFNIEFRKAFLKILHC

The assay has as its target D(2) dopamine receptor (Homo sapiens) (UniProt P14416). Description: HTS Assay for Allosteric Antagonists of the Human D2 Dopamine Receptor: Primary Screen for Antagonists. Also: 0% is about no effect. The conditions noted are these: HEK293 TREx D2 cells, calcium flux, dopamine EC80; at 10 µM; stronger effect = higher value. Summed up:
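Cells plated overnight at 30 C with tetracycline; no-wash calcium dye, 30–90 min RT; 10 s baseline; compound pinned; 180 s read; EC80 dopamine added; another 180 s read.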
(In general: A change in cytosolic calcium serves as a functional read-out for many receptors and channels.)
For orientation: inhibition means the relative decrease from the control value, in per cent. `COc1cc(NS(=O)(=O)c2ccc3[nH]c(=O)[nH]c3c2)cc(OC)c1`: the inhibition is -3.84%.
For `CCOc1ccc(NC(=O)CN2CCN(CC(=O)Nc3ccc(N(CC)CC)cc3)CC2)cc1`, the inhibition was 2%.
As to `COc1cccc2c1Oc1ncccc1N(c1ccc(C(=O)NCc3ccccc3C)s1)C2`, the inhibition was -0.315%.
Consider `Cc1ccc(NC(=O)c2c(C)oc3ncn(C)c(=O)c23)cc1F`, for which the inhibition stood at 21.5%.
To `COc1ccccc1NC(=O)CSC1=Nc2ccccc2C2=NC(CC(=O)NCCc3ccccc3)C(=O)N12` (configuration not stated) belongs 1.75%; to `CCOc1ccc(Nc2c(S(=O)(=O)c3ccc(C)cc3)cnc3cc(OC)c(OC)cc23)cc1`, 1.23%; to `CCc1ccccc1NC(=O)Cn1nnc(-c2nc(-c3ccncc3)no2)c1N`, -6.41%.
As for `COc1cc(NS(=O)(=O)c2ccc3c(c2)CC(=O)N3)cc(OC)c1OC`, the inhibition was -6.46%.
As for `Cc1ccc(NC(=O)C2CCN(S(=O)(=O)c3ccc4c(c3)CCCC(=O)N4)CC2)c(Cl)c1`, the inhibition came out at 6.09%.
Turning to `CCc1ccc(C2=C(C)C(N3CCC(C(=O)Nc4cccc(OC)c4)CC3)=NS2(=O)=O)cc1`, the inhibition came out at 7.75%.
For the compound `Oc1ccc(/C=C/c2nc(-c3ccccc3O)n(-c3ccccc3)n2)c(O)c1`, the inhibition was -18%.
`CCOc1ccc(NC(=O)CSc2nc(-c3cccs3)cc(C(F)(F)F)c2C#N)cc1`: the inhibition turned out to be 3.06%.
`Cc1cccc(NC(=O)CSc2nc(=O)n(Cc3ccncc3)c3c2CCC3)c1C`: the inhibition is -15.2%.
Consider `Cc1ccc(-c2noc(-c3ccccc3NC(=O)C3CC(=O)N(c4cccc(C)c4)C3)n2)cc1` (configuration not stated), for which the inhibition worked out at 28%.
Regarding `CCOC(=O)c1c(NC(=O)COc2cc(C)ccc2C(C)C)sc2c1CCCC2`, the inhibition was -10.2%.
For the compound `Cc1cc(/C=N/O)c(C)n1-c1ccc(Br)cc1`, the inhibition was active: 37.7%.
In the case of `Cc1cccc(NC(=O)c2c(NC(=O)c3cccs3)sc3c2CCC(C)C3)c1` (configuration not stated) it was -4.94%; in that of `COc1cccc(CN2CCc3nc(Nc4ccc5c(c4)OCCO5)ncc3C2)c1OC`, 7.92%.
To `CC(=O)Nc1ccc(OCc2cc(=O)n3ccccc3n2)cc1` belongs -24.5%; to `COc1ccccc1N1CCN(C(CNC(=O)C(=O)NCCN(C)C)c2cccnc2)CC1` (configuration not stated), -3.34%; to `S=C(NCc1ccco1)Nc1ccccc1`, active: 30.6%.
With `O=C(O)C1CC=CCC1C(=O)NCCCCc1ccccc1` (configuration not stated), the inhibition was active: 33.7%.
Take `CN(C)C(=O)c1ccc(NC(=O)Cn2nc(-c3ccccc3)c3ccccc3c2=O)cc1`: the inhibition is -6.27%.
To `CCOC(=O)c1cccc(NS(=O)(=O)c2cc(-c3cnc(C)o3)ccc2OC)c1` belongs -19.9%; to `Clc1cccc(-n2ncc3c(NCCc4ccccc4)ncnc32)c1`, -8.25%.
With `CCCOc1ccc(C2C(=O)N(C3CCCCC3)CC(=O)N2CCc2ccccc2)cc1OC` (configuration not stated), the inhibition is -11.8%.
To `Cc1c(Cl)cccc1NC(=O)c1ccc2c(c1)nnn2C1CCCC1` belongs -14.5%; to `CCOC(=O)c1c(C)oc2nc(C)nc(N(CC(C)C)CC(C)C)c12`, -9.26%.
Regarding `O=C(CCS(=O)(=O)c1ccccc1)N(Cc1cccnc1)c1nc2c(Cl)cccc2s1`, the inhibition is -17.6%.
Regarding `O=C(Nc1ccccc1C(=O)OCc1cc(=O)n2c3c(sc2n1)CCCC3)c1ccccc1`, the inhibition turned out to be 15.9%.
With `CCc1ccc(NC(=O)c2ccc3c(=O)n4nc(Nc5ccccc5C)sc4nc3c2)cc1`, the inhibition was found to be 4.89%.
`COc1ccc(Cl)cc1NC(=O)Cn1c(=O)n(Cc2nc(C)no2)c(=O)c2ccccc21`: the inhibition worked out at 3.29%.
For `C=CCc1c(C)nc2nc(SCC(=O)Nc3cccc(Cl)c3)nn2c1C`, the inhibition was -10.6%.
As to `CC(C)CN(CC(C)C)c1nc(-c2ccc(Cl)cc2)nc2ccccc12`, the inhibition was -2.99%.
Turning to `CCc1cccc(NC(=O)c2cc3c(=O)[nH]c4ccccc4c3n2C)c1`, the inhibition worked out at 0.929%.
Take `COc1ccc(CN(C)S(=O)(=O)c2nnc(NC(=O)C(C)C)s2)cc1OC`: the inhibition was 12.3%.
For `COc1ccc(NC(=O)CSc2nnc3ccc(-c4ccccn4)nn23)cc1OC`, the inhibition was active: 30.3%.
Take `Cc1ccc(C)c(CSC2=NC(C)(C)Nc3ccccc32)c1`: the inhibition is -22.2%.
To `COc1ccccc1NC(=O)C1=C(C)Nc2nc(SCc3ccccc3F)nn2C1c1cccnc1` (configuration not stated) belongs 0.854%; to `Cc1ccc(Cl)cc1NC(=O)c1sc2nc(-c3ccccc3)cn2c1C`, -17.1%.
To `Clc1ccc(Nc2c(-c3cccs3)nc3ccc(Cl)cn23)cc1` belongs -19%; to `COc1ccc(CCNC(=O)Cn2c(=O)cc(C(F)(F)F)c3c(C)nn(C)c32)cc1OC`, 9.77%.
Turning to `COc1ccc(-c2nc3scc(CCNS(=O)(=O)c4cc(F)ccc4OC)n3n2)cc1OC`, the inhibition worked out at 19.2%.
For the compound `Cc1ccc(CCNC(=O)CCCn2c(=O)c3ccccc3n(CC(=O)Nc3cc(Cl)ccc3C)c2=O)cc1`, the inhibition is 4.04%.
To `CC(=O)N1CCc2c(sc3nc(SCC(N)=O)n(-c4ccc(F)c(Cl)c4)c(=O)c23)C1` belongs 14.5%.
As for `Cc1ccc(CN2CCSc3ccc(C(=O)Nc4cc(C)cc(C)c4)cc32)cc1`, the inhibition came out at 2.53%.
As to `CN(C(=O)CSc1nnc(-c2ccc([N+](=O)[O-])cc2)o1)C1CCCCC1`, the inhibition was -9.94%.
As to `COc1ccc2c(c1)c1c(c(=O)n(Cc3ccccc3)c(=O)n1CC(=O)Nc1cc(C)cc(C)c1)n2C`, the inhibition is -7.33%.
With `CC1CCN(CCn2c(=S)[nH]c3ccccc3c2=O)CC1`, the inhibition was active: 30.6%.
For `O=C(Nc1ccccc1OCc1cc(=O)n2ccccc2n1)c1cccc(Br)c1`, the inhibition was -20.4%.
`Cc1cccc(N2CCN(C(=O)c3ccc4c(c3)c(C)c(C)n4C)CC2)c1C`: the inhibition came to 7.93%.
In the case of `CCOc1ccc(NC(=O)N2CCC(CN3CCCCCC3)CC2)cc1`, the inhibition turned out to be 15.4%.
`COc1ccc(CCN(C)C/C=C/c2ccccc2[N+](=O)[O-])cc1OC`: the inhibition is active: 57.3%.
Take `Cc1ccc(Cl)cc1NC(=O)CCCn1c(=O)c2cccn2c2ccccc21`: the inhibition is 1.57%.
For `Clc1ccc(OCc2nc(-c3ccc(-n4cccc4)cc3)no2)cc1`, the inhibition worked out at 0.9%.
Consider `O=C(CS(=O)(=O)Cc1ccccc1)Nc1ccc(Cl)cn1`, for which the inhibition was active: 51.9%.
Consider `COCCn1c(C)cc(O)c(C(c2ccccc2)N2CCN(CCO)CC2)c1=O` (configuration not stated), for which the inhibition worked out at 16%.
With `COc1cc2c(cc1OC)C(COc1ccc3c(C)cc(=O)oc3c1)N(C(=O)c1cccc(OC)c1OC)CC2` (configuration not stated), the inhibition was -1.7%.
In the case of `CC(=O)N1c2ccc(S(=O)(=O)N3CCCCCC3)cc2CC1C(=O)NCc1ccccc1` (configuration not stated), the inhibition is -2.76%.
`Cc1ccc(-c2nc(CSCC(=O)NC3CCN(Cc4ccccc4)CC3)c(C)o2)cc1`: the inhibition is active: 47.3%.
In the case of `O=C(Nc1ccc2oc(-c3ccccc3)nc2c1)c1ccc2ccccc2c1`, the inhibition is 25.1%.
On to `COCCCNC(=O)CSc1nc(-c2ccccc2)[nH]c1-c1ccc(C)cc1`, for which the inhibition was 19.8%.
In the case of `CCn1c(=O)cc(SCC(=O)NCCc2ccc(OC)cc2OC)c2ccccc21` it was 4.1%; in that of `Cn1c(=O)[nH]c2cc(-c3noc(-c4ccc(F)cc4)n3)ccc21`, 17.3%; in that of `CCc1ccc(-n2c(=O)c3c4c(sc3n(CC(=O)NC(C)CC)c2=O)CCCC4)cc1` (configuration not stated), 3.05%.
With `CCc1cnc2c(c1SCC(=O)Nc1ccc(C)cc1C)c(=O)n(C)c(=O)n2C`, the inhibition is -25.7%.
On to `CCCn1c(=O)c2sccc2n2c(CCCC(=O)Nc3cccc(CC)c3)nnc12`, for which the inhibition worked out at 4.01%.
With `COc1ccc(NC(=O)Cn2c(SCc3ccc(C)cc3)nc3cccnc32)c(OC)c1`, the inhibition is -16.8%.
In the case of `Cc1ccc(NC(=O)CCC(=O)N2Cc3ccccc3Oc3ncccc32)cc1`, the inhibition was 2.72%.
Regarding `O=C(CCc1ccccc1)NC1CC(=O)N(c2ccccc2)C1` (configuration not stated), the inhibition is -18.3%.
Take `COc1cccc(OC)c1C(=O)Nc1ccc2c(c1)N(C(C)=O)CCC2`: the inhibition was determined as 9.98%.
As to `CCOc1ccc(CNS(=O)(=O)c2cc(-c3cc(C)no3)ccc2C)cc1OC`, the inhibition is -4.23%.
As to `O=C1CC(c2ccc(Cl)cc2)Sc2nc(-c3ccc(F)cc3)nn21` (configuration not stated), the inhibition is -3.1%.
To `COc1ccc(-c2cnc(C)o2)cc1S(=O)(=O)Nc1ccc(C)c(N(C)C)c1` belongs 6.06%.
As to `COc1ccc2c(c1)c1c(c(=O)n(-c3ccccc3C)c(=O)n1CC(=O)Nc1c(C)cccc1C)n2C`, the inhibition turned out to be 6.81%.
To `CSc1cccc(CN2CCN(Cc3ccccc3)C(CCO)C2)c1` (configuration not stated) belongs active: 38.9%.
To `O=c1c2[nH]c3ccccc3c2nc(SCc2cccc(F)c2)n1-c1ccccc1` belongs 6.65%.
For `O=C(O)CCc1ccc(-c2ccccc2)n1CC(=O)Nc1ccccc1C(F)(F)F`, the inhibition is -0.0853%.
Turning to `O=C(CSc1nc2c(cnn2-c2cccc(Cl)c2)c(=O)[nH]1)NCC1CCCO1` (configuration not stated), the inhibition is active: 38.7%.
Regarding `COc1ccccc1CNC(=O)CCCCn1c(=O)c2ccccc2n(CC(=O)Nc2cc(Cl)ccc2C)c1=O`, the inhibition is 11.9%.
In the case of `c1ccc2c(c1)nnn2-c1ncnc2sc3c(c12)CCCC3` it was active: 30.8%; in that of `COC(=O)c1ccc(NC(=O)C2CCN(C(=O)c3ccc(F)cc3)CC2)cc1`, -12.8%.
In the case of `CCS(=O)(=O)CCSc1nc(-c2ccc(Br)cc2)cc(-c2ccccc2)c1C#N` it was 9.27%; in that of `CCOc1cc(C(=O)Nc2ccc(-c3nc4ncccc4o3)cc2C)cc(OCC)c1OCC`, -14.4%.
Take `Cc1cccc(NC(=O)CCn2nc(-c3ccccc3)c3ccccc3c2=O)c1`: the inhibition was -12.5%.
In the case of `N#Cc1cccc(NC(=O)C2CCN(c3ncccn3)CC2)c1`, the inhibition is -7.9%.
Consider `CC1=C(C(=O)Nc2ccccc2C)C(c2cccnc2)n2nc(SCc3ccccc3F)nc2N1` (configuration not stated), for which the inhibition stood at 17.2%.
On to `O=C(CCCc1ccccc1)Nc1ccnn1C1CCN(Cc2ccc(Cl)cc2)CC1`, for which the inhibition was active: 35.4%.
`COC(=O)c1c(NC(=O)COc2cc(C)ccc2C(C)C)sc2c1CCC(C)C2` (configuration not stated): the inhibition was -2.16%.
For `Cc1cc(C)c(S(=O)(=O)n2cnc(C)c2)c(C)c1`, the inhibition is -1.2%.
To `CC(=O)c1ccc(N2CCN(S(=O)(=O)c3ccc(-c4cc(C)no4)s3)CC2)cc1` belongs 1.55%; to `Cc1ccc(-c2ccc(=O)n(CC(=O)NCc3ccc(F)cc3)n2)cc1`, -17.4%; to `CCC(C)NC(=O)C1CCC(CNS(=O)(=O)c2ccc(Cl)cc2)CC1` (configuration not stated), -4.99%.
As to `COc1ccc(-c2nc3n(n2)C(=O)CC(c2ccc(Cl)cc2)S3)cc1` (configuration not stated), the inhibition stood at 0.995%.
To `CCn1c2ccccc2c2cc(NC(=O)COc3ccc(C)c(C)c3)ccc21` belongs -12.1%; to `CCOC(=O)c1ccc(NC(=O)CC2NCCNC2=O)cc1` (configuration not stated), -0.559%; to `Cc1ccc2nc3c(cc(C(=O)NC4CCCCC4)c(=N)n3C(C)C)c(=O)n2c1`, -0.407%.
